# Reference: the supplement of paper PMC6089552
# Hit rate of the full screen: of about 3,200 compounds, about 300 (9.4%) showed activity. The entries are a selection whose mix differs from that of the whole data set.
# Tested on: A673/TR/shEF
# Test: cell viability (LOESS-normalised, relative to median of negative controls) (log2 ratio); higher = more viable cells (less compound effect), active = hit call of the paper (over 3 MAD below the median)
# Conditions: treatment time: 72 h
# Method in brief: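 A673/TR/shEF Ewing sarcoma cells were plated at 1,500 per well in 384-well plates and cultured with or without doxycycline, added 24 h before compounds, to induce EWS-FLI1 shRNA knockdown. Library compounds at two or more concentrations, alongside DMSO controls, were applied for three days. Cell viability was measured by CellTiter-Glo luminescence on an Envision reader. Readings were LOESS-corrected per plate, divided by the median of negative controls and log2-transformed, and hits were wells lying at least three median absolute deviations from the median of all screened wells.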
# [1] = 0.25 µM, library screen: screen1, EWS-FLI1 expression: high (no doxycycline)
# [2] = 0.25 µM, library screen: screen1, EWS-FLI1 expression: low (doxycycline-induced shRNA knockdown)
# [3] = 2.5 µM, library screen: screen1, EWS-FLI1 expression: high (no doxycycline)
# [4] = 2.5 µM, library screen: screen1, EWS-FLI1 expression: low (doxycycline-induced shRNA knockdown)
# [5] = 0.25 µM, library screen: screen2, EWS-FLI1 expression: high (no doxycycline)
# [6] = 0.25 µM, library screen: screen2, EWS-FLI1 expression: low (doxycycline-induced shRNA knockdown)
# [7] = 2.5 µM, library screen: screen2, EWS-FLI1 expression: high (no doxycycline)
# [8] = 2.5 µM, library screen: screen2, EWS-FLI1 expression: low (doxycycline-induced shRNA knockdown)
# [9] = 0.103 µM, library screen: screen3, EWS-FLI1 expression: high (no doxycycline)
# [10] = 0.103 µM, library screen: screen3, EWS-FLI1 expression: low (doxycycline-induced shRNA knockdown)
# [11] = 0.308 µM, library screen: screen3, EWS-FLI1 expression: high (no doxycycline)
# [12] = 0.308 µM, library screen: screen3, EWS-FLI1 expression: low (doxycycline-induced shRNA knockdown)
# [13] = 0.926 µM, library screen: screen3, EWS-FLI1 expression: high (no doxycycline)
# [14] = 0.926 µM, library screen: screen3, EWS-FLI1 expression: low (doxycycline-induced shRNA knockdown)
# [15] = 2.8 µM, library screen: screen3, EWS-FLI1 expression: high (no doxycycline)
# [16] = 2.8 µM, library screen: screen3, EWS-FLI1 expression: low (doxycycline-induced shRNA knockdown)
# [17] = 8.3 µM, library screen: screen3, EWS-FLI1 expression: high (no doxycycline)
# [18] = 8.3 µM, library screen: screen3, EWS-FLI1 expression: low (doxycycline-induced shRNA knockdown)
# [19] = 25 µM, library screen: screen3, EWS-FLI1 expression: high (no doxycycline)
# [20] = 25 µM, library screen: screen3, EWS-FLI1 expression: low (doxycycline-induced shRNA knockdown)
smiles,measurement,setting,value
CC[C@H]1OC(=O)[C@H](C)[C@@H](O[C@H]2C[C@@](C)(OC)[C@@H](O)[C@H](C)O2)[C@H](C)[C@@H](O[C@@H]2O[C@H](C)C[C@H](N(C)C)[C@H]2O)[C@](C)(O)C[C@@H](C)/C(=N/OCOCCOC)[C@H](C)[C@@H](O)[C@]1(C)O,cell viability (log2),[1],inactive: 0.13
same,cell viability (log2),[2],inactive: 0.107
same,cell viability (log2),[3],inactive: 0.122
same,cell viability (log2),[4],inactive: 0.103
CN=C(N)NCCC[C@H](N)C(=O)O,cell viability (log2),[5],inactive: 0.135
same,cell viability (log2),[6],inactive: 0.0635
same,cell viability (log2),[7],inactive: 0.148
same,cell viability (log2),[8],inactive: 0.0854
NS(O)(O)Cc1noc2ccccc12,cell viability (log2),[5],inactive: 0.153
same,cell viability (log2),[6],inactive: 0.0786
same,cell viability (log2),[7],inactive: 0.183
same,cell viability (log2),[8],inactive: 0.124
CC[C@]12CCCN3CCc4c(n(c5ccccc45)C(=O)C1)[C@@H]32,cell viability (log2),[1],inactive: 0.0175
same,cell viability (log2),[2],inactive: 0.0321
same,cell viability (log2),[3],inactive: 0.0724
same,cell viability (log2),[4],inactive: 0.0347
CC(N)(C(=O)O)c1ccc(C(=O)O)cc1 (configuration not stated),cell viability (log2),[5],inactive: 0.0845
same,cell viability (log2),[6],inactive: 0.186
same,cell viability (log2),[7],inactive: 0.128
same,cell viability (log2),[8],inactive: 0.0744
CC#CCOC(=O)c1c(C)nc2sc3c(c2c1N)CCC(O)C3 (configuration not stated),cell viability (log2),[5],inactive: 0.106
same,cell viability (log2),[6],inactive: 0.0178
same,cell viability (log2),[7],inactive: 0.229
same,cell viability (log2),[8],inactive: 0.0164
NCC(O)c1ccc(O)c(O)c1 (configuration not stated),cell viability (log2),[5],active: -0.177
same,cell viability (log2),[6],inactive: 0.0558
same,cell viability (log2),[7],inactive: 0.0351
same,cell viability (log2),[8],inactive: -0.00208
CCn1cc(C(=O)O)c(=O)c2cc(F)c(N3CCNC(C)C3)c(F)c21 (configuration not stated),cell viability (log2),[9],inactive: 0.0316
same,cell viability (log2),[10],inactive: 0.0571
same,cell viability (log2),[1],inactive: 0.0538
same,cell viability (log2),[2],inactive: 0.0764
same,cell viability (log2),[5],inactive: 0.0719
same,cell viability (log2),[6],inactive: 0.118
same,cell viability (log2),[11],inactive: 0.0629
same,cell viability (log2),[12],inactive: 0.00567
same,cell viability (log2),[13],inactive: -0.0224
same,cell viability (log2),[14],inactive: 0.0164
same,cell viability (log2),[3],inactive: 0.104
same,cell viability (log2),[4],inactive: 0.0913
same,cell viability (log2),[7],inactive: 0.103
same,cell viability (log2),[8],inactive: 0.152
same,cell viability (log2),[15],inactive: 0.0299
same,cell viability (log2),[16],inactive: 0.0284
same,cell viability (log2),[17],inactive: 0.0658
same,cell viability (log2),[18],inactive: 0.0646
same,cell viability (log2),[19],inactive: 0.0572
same,cell viability (log2),[20],inactive: 0.0961
CS(=O)(=O)Nc1ccc([N+](=O)[O-])cc1Oc1ccccc1,cell viability (log2),[1],inactive: 0.147
same,cell viability (log2),[2],inactive: 0.0914
same,cell viability (log2),[5],inactive: 0.0788
same,cell viability (log2),[6],inactive: -0.000657
same,cell viability (log2),[3],inactive: 0.123
same,cell viability (log2),[4],inactive: 0.11
same,cell viability (log2),[7],inactive: 0.101
same,cell viability (log2),[8],inactive: 0.0459
O=C(O)C1=CCNCC1,cell viability (log2),[1],inactive: 0.092
same,cell viability (log2),[2],inactive: 0.14
same,cell viability (log2),[5],inactive: 0.185
same,cell viability (log2),[6],inactive: 0.088
same,cell viability (log2),[3],inactive: 0.0671
same,cell viability (log2),[4],inactive: 0.217
same,cell viability (log2),[7],inactive: 0.23
same,cell viability (log2),[8],inactive: 0.0512
CCC1=C[C@@H]2CN(C1)Cc1c([nH]c3ccccc13)[C@@](C(=O)OC)(c1cc3c(cc1OC)N(C)[C@H]1[C@@](O)(C(=O)OC)[C@H](OC(C)=O)[C@]4(CC)C=CCN5CC[C@]31[C@@H]54)C2,cell viability (log2),[9],active: -4.31
same,cell viability (log2),[10],active: -1.05
same,cell viability (log2),[11],active: -3.96
same,cell viability (log2),[12],active: -1.11
same,cell viability (log2),[13],active: -4.31
same,cell viability (log2),[14],active: -0.811
same,cell viability (log2),[15],active: -4.31
same,cell viability (log2),[16],active: -0.798
same,cell viability (log2),[17],active: -3.91
same,cell viability (log2),[18],active: -0.769
same,cell viability (log2),[19],active: -3.44
same,cell viability (log2),[20],active: -0.836
COC1[C@H](O)[C@@H](O)C(O)[C@H](O)[C@H]1O (some centres not stated),cell viability (log2),[1],inactive: 0.0827
same,cell viability (log2),[2],inactive: 0.0562
same,cell viability (log2),[3],inactive: 0.177
same,cell viability (log2),[4],inactive: 0.115
CCOC(=O)CCC(=O)O[C@H]1[C@H](O[C@@H]2[C@@H](C)[C@H](O[C@H]3C[C@@](C)(OC)[C@@H](O)[C@H](C)O3)[C@@H](C)C(=O)O[C@H](CC)[C@@](C)(O)[C@H](O)[C@@H](C)C(=O)[C@H](C)C[C@@]2(C)O)O[C@H](C)C[C@@H]1N(C)C,cell viability (log2),[1],inactive: 0.147
same,cell viability (log2),[2],inactive: 0.0798
same,cell viability (log2),[3],inactive: 0.135
same,cell viability (log2),[4],inactive: -0.00105
C[C@]12C=CC(=O)C=C1CC[C@@H]1[C@@H]2C(=O)C[C@@]2(C)[C@H]1CC[C@]2(O)C(=O)CO,cell viability (log2),[9],inactive: 0.0128
same,cell viability (log2),[10],inactive: -0.00442
same,cell viability (log2),[1],inactive: 0.0597
same,cell viability (log2),[2],inactive: 0.0865
same,cell viability (log2),[11],inactive: 0.0642
same,cell viability (log2),[12],inactive: 0.0373
same,cell viability (log2),[13],inactive: 0.119
same,cell viability (log2),[14],inactive: 0.0782
same,cell viability (log2),[3],inactive: 0.0821
same,cell viability (log2),[4],inactive: 0.126
same,cell viability (log2),[15],inactive: 0.0918
same,cell viability (log2),[16],inactive: 0.158
same,cell viability (log2),[17],inactive: 0.043
same,cell viability (log2),[18],inactive: 0.0793
same,cell viability (log2),[19],inactive: 0.104
same,cell viability (log2),[20],inactive: 0.14
C[C@]12C=CC(=O)C=C1CC[C@@H]1C2=CC[C@]2(C)[C@@H](C(=O)CN3CCN(c4cc(N5CCCC5)nc(N5CCCC5)n4)CC3)CC[C@@H]12,cell viability (log2),[5],inactive: 0.131
same,cell viability (log2),[6],inactive: 0.0546
same,cell viability (log2),[7],inactive: 0.0776
same,cell viability (log2),[8],inactive: 0.0158
Cc1ccc(/C(=C\CN2CCCC2)c2ccccn2)cc1,cell viability (log2),[1],inactive: 0.101
same,cell viability (log2),[2],inactive: 0.13
same,cell viability (log2),[5],inactive: 0.18
same,cell viability (log2),[6],inactive: 0.0433
same,cell viability (log2),[3],inactive: 0.246
same,cell viability (log2),[4],inactive: 0.248
same,cell viability (log2),[7],inactive: 0.203
same,cell viability (log2),[8],inactive: 0.141
